The list shows a part of the results.
What was measured:
HSkMC = human skeletal muscle cells; assay: cytotoxicity call (relative viability < 0.9); conditions: 10 µM
HepG2 = assay: cytotoxicity call (relative viability < 0.9); conditions: 10 µM
S. aureus RN4220 = assay: growth inhibition call (relative growth <= 0.2); conditions: 50 µM

## NCC1(CC(=O)O)CCCCC1
HSkMC
  cytotoxicity call: inactive
HepG2
  cytotoxicity call: inactive
S. aureus RN4220
  growth inhibition call: inactive

## CI.O=C(COc1ccc(Cl)cc1Cl)OC[C@H]1CCCN2CCCC[C@@H]12
HSkMC
  cytotoxicity call: inactive
HepG2
  cytotoxicity call: inactive
S. aureus RN4220
  growth inhibition call: inactive

## C=C1[C@H]2CC[C@H]3[C@]4(C)C[C@H](O[C@H]5O[C@@H](CO)[C@@H](OS(=O)(=O)O)[C@H](OS(=O)(=O)O)[C@H]5OC(=O)CC(C)C)C[C@@H](C(=O)O)[C@H]4CC[C@]3(C2)[C@H]1O
HSkMC
  cytotoxicity call: inactive
HepG2
  cytotoxicity call: inactive
S. aureus RN4220
  growth inhibition call: inactive

## CC1(C)C(=O)C=CC2(C)C1=C(O)C(=O)C1(C)C2CCC2(C)C(c3ccoc3)CC3OC321 (stereo not drawn)
HSkMC
  cytotoxicity call: active
HepG2
  cytotoxicity call: active
S. aureus RN4220
  growth inhibition call: inactive

## CCOCC(=O)N[C@H]1CCSC1=O
HSkMC
  cytotoxicity call: inactive
HepG2
  cytotoxicity call: inactive
S. aureus RN4220
  growth inhibition call: inactive

## COc1ccc(OC(=O)N(C)C[C@H]2OCc3ccccc3-c3c(n(C)c4ccccc34)C(=O)N([C@H](C)CO)C[C@@H]2C)cc1
HSkMC
  cytotoxicity call: inactive
HepG2
  cytotoxicity call: inactive
S. aureus RN4220
  growth inhibition call: inactive
